Assay results taken from PubChem BioAssay AID1645882 (National Center for Advancing Translational Sciences (NCATS), 2021).
The whole screen tested about 16,000 compounds, of which about 120 (0.75%) were called active. About 4% were inconclusive and are not listed. Calls come from the whole dose curve; as a rule, active = well fitted inhibition curve with a large enough effect; inconclusive = small, poorly fitted or top-dose-only effect; inactive = no such curve, though single readings can be large or run the other way. Some of the results follow.

target: Rap guanine nucleotide exchange factor 3 (Homo sapiens) (UniProt O95398); assay: Validation qHTS for antagonist of cAMP-regulated guanine nucleotide exchange factor 3 (EPAC1); details: EPAC1 Rap1B-BODIPY-GDP exchange, fluorescence; series mostly up to 150 µM; activity change, negative = inhibition: at the top concentration;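 note: plate controls were DMSO for no effect and ATA control for full effect; nearly all actives have a fitted effect of over 75% in size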
UniProt O95398, sequence (O95398 whole entry, looked up): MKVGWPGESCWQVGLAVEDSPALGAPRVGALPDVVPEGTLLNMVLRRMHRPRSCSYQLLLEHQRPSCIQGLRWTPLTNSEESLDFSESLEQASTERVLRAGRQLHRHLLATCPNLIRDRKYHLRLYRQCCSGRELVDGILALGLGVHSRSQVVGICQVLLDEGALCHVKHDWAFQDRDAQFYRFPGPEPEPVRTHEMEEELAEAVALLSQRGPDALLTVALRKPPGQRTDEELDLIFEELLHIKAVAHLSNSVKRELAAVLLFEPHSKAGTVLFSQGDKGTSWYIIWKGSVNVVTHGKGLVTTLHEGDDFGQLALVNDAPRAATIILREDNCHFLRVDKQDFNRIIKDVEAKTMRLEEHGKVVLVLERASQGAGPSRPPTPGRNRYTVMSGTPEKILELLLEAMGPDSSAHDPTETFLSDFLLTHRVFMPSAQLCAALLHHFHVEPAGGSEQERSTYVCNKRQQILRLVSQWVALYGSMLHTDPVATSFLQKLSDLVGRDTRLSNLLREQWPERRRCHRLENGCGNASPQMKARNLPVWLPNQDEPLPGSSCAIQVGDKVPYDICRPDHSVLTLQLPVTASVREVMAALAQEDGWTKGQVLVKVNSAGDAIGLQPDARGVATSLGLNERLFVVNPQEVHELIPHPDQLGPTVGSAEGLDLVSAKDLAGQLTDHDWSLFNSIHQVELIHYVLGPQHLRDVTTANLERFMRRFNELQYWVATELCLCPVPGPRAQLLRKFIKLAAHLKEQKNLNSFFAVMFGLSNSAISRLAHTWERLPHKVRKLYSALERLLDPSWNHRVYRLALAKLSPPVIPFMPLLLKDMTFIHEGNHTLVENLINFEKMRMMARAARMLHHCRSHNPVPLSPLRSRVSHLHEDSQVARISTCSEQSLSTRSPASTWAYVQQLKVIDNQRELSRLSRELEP
Procedure, shortened: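 EPAC1 (100 nM) mixed with 250 nM RAP1B-BODIPY-GDP and 50 uM GDP; compounds in concentration series, 5 min at room temperature. Fluorescence (ex 480/em 540 nm) read every 5 min for 30 min; normalized to ATA control and DMSO.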

Activity change, negative = inhibition, inactive:
OCCCNCc1cc2ccc(F)cc2nc1N1CCN(c2cccc(Cl)c2)CC1 -4.89%
CCN(CC)CCNC(=O)c1cc(Br)c(N)cc1OC 16.4%
Nc1nc(/C(=C/CC(=O)O)C(=O)N[C@@H]2C(=O)N3C(C(=O)O)=CCS[C@H]23)cs1 28.7%
C[N@+]12CCCC[C@@H]1CCC(=C(c1cccs1)c1cccs1)C2 9.22%
O=C(Oc1ccccc1)N1CCC[C@@]2(CCN(c3ccncc3)C2)C1 13.9%
CC(C)CCC[C@@H](C)[C@H]1CC[C@H]2[C@@H]3CC[C@@H]4C[C@H](O)CC[C@]4(C)[C@H]3CC[C@]12C -0.317%
C=CCN1CCc2cc(O)c(O)cc2C(c2ccccc2)C1 (stereo not drawn) 1.16% [at 75.8 µM]
c1ccc2c(NC3CCNCC3)nc(-c3ccoc3)nc2c1 3.73%
O=C(C[n+]1cccc(Br)c1)c1ccc(I)cc1 24%
Nc1ncnc2nc[nH]c12 16.3%
O=C(CN1Cc2ccccc2OC(c2ccsc2)C1)NCc1ccc2c(c1)OCO2 (stereo not drawn) -4.22%
O=C(NCCCCCCNC(=O)ON=C1CCCCC1)ON=C1CCCCC1 31.2% [at 201 µM]
COc1ccccc1C1CN(Cc2cnn(C)c2)Cc2ccccc2O1 (stereo not drawn) 12.7%
O=C(c1ccco1)N1CCC2(CCCN(c3ccccn3)C2)CC1 3.96%
OCCN1CCN(CC/C=C2/c3ccccc3Sc3ccc(Cl)cc32)CC1 22.2% [at 75.8 µM]
CC(C)C[C@@H](CN=[N+]=[N-])N1CCN(Cc2ccccc2)CCC1=O 0.863%
O=C(O)C(Cc1cc(I)c(O)c(I)c1)c1ccccc1 (stereo not drawn) 7.71%
CC(C)NC(=O)N1CC[C@@]2(CCCN(C(=O)c3cccn3C)C2)C1 11.3%
Cc1c(CCO)sc[n+]1CC(=O)c1ccccc1 17.6%
O=c1cc(/C=C/c2ccc([N+](=O)[O-])cc2)c2ccccc2[nH]1 3.44%
NCCCS(=O)(=O)O
CC(O)(COc1ccccc1)c1ccc2c(c1)CN(C/C=C/c1ccco1)CCO2 (stereo not drawn) -13.4%
Cc1cnc(C)c(-c2cccc3c2OC(CNC(=O)/C=C/c2ccncc2)C3)n1 (stereo not drawn) 19.7%
CCC(=O)O[C@]1(C(=O)SCF)[C@H](C)C[C@H]2[C@@H]3C[C@H](F)C4=CC(=O)C=C[C@]4(C)[C@@]3(F)[C@@H](O)C[C@@]21C 28% [at 75.8 µM]
COc1ccc(CN2CC[C@H]3C=CC[C@@H](C(=O)Nc4ccc(Cl)c(C(F)(F)F)c4)[C@H]3C2=O)cc1OC 2.44%
Nc1[nH]c(=O)ncc1F 23.9% [at 75.8 µM]
COc1ncc2nc(-c3ccc(Cl)cc3)c(=O)n(Cc3cccs3)c2n1 -0.957%
O=C(O)c1ccc2c(c1)OCO2 15.5%
COc1ccc(-n2c(=O)c(-c3ccc(F)c(F)c3)nc3cncnc32)cc1 4.95%
O=C(/C=C/c1ccccc1)c1ccc(O)cc1 -12.2%
CN(Cc1ccco1)c1cc(-c2ccccc2Cl)ncn1 14.6%
CCc1cc(Cl)c(OC)c(C(=O)NC[C@@H]2CCCN2CC)c1O
COCCn1c(=O)c(-c2cccc(Cl)c2)nc2cncnc21 0.418%
CN(C)CCOC(=O)C(c1ccccc1)C1(O)CCCC1 (stereo not drawn)
C[N+]1(C)C2CC(OC(=O)[C@H](CO)c3ccccc3)CC1C1OC12 (stereo partly drawn)
CCCCN1CC[C@H]2C=CC[C@@H](C(=O)NCCc3ccccc3)[C@H]2C1=O -24.3%
Cc1cnc(-n2ncc(C(=O)NCC(C)(C)N3CCOCC3)c2C(C)C)nc1-c1ccc(F)cc1 13.9%
Nc1ncnc2c1ncn2[C@H]1O[C@@H](CSCC[C@@H](N)C(=O)O)[C@H](O)[C@@H]1O 16%
O=C1O[C@H]([C@@H](O)CO)C(O)=C1O
CN(C)c1ccc(C(=C2C=CC(=[N+](C)C)C=C2)c2ccccc2)cc1 6.76%
COCCn1c(=O)c(-c2ccccc2)nc2cnc(N3CCN(C)CC3)nc21 10.1%
CCNCCCNCCCNCCCNCC -6.31%
Clc1ccc(C(c2ccccc2Cl)C(Cl)Cl)cc1 (stereo not drawn)
CCCCC/C=C\C/C=C\C/C=C\CCCCC(=O)O 12.2%
O=C(O)Cc1cc2ccccc2nc1C(=O)O -3.09%
COCC1CCCN(Cc2ccc3c(c2)CN(C(=O)c2ccc(OC)nc2OC)CCO3)C1 (stereo not drawn) 27%
COCCNc1nc(-c2ccccc2OC)nc2ccccc12 13.8%
N#Cc1cccc(-c2nccc(-n3ccnc3)n2)c1 10.4%
CN(Cc1ccco1)Cc1cc(-c2ccnc3cc(Cl)ccc23)ccc1O 5.85%
Cc1cccc(C)c1OCC(=O)N[C@@H](Cc1ccccc1)[C@@H](O)C[C@H](Cc1ccccc1)NC(=O)[C@H](C(C)C)N1CCCNC1=O -1.05%
O=C(NCCN1CCOCC1)c1cnn(-c2nccc(-c3ccccc3F)n2)c1C1CC1 6.19%
CC(C)NC(=O)N1CC[C@@]2(CCCN(C(=O)c3cnccn3)C2)C1 15.8%
O=c1c(CCc2ccccc2)nc2cnc(N3CCOCC3)nc2n1C[C@H]1CCCO1 2.37%
CS(=O)(=O)N1CCC2(CCN(c3ccccn3)CC2)CC1 -2.26%
COc1cccc(CNC(=O)c2c(OC)cc(=O)n3c2CCN(C(=O)c2ccc(C)nc2)CC3)c1 4.71%
O=C(O)c1ccccc1Nc1cccc(C(F)(F)F)c1 13.8%
OCCc1ccccc1 -6.32%
O=C(c1ccc(F)cc1)C1CCN(CCn2c(=S)[nH]c3ccccc3c2=O)CC1 12%
COc1cc(C/C=C\c2ccccc2)c(OC)cc1O -5.85%
COc1ccc(CCCO[C@@H](Cn2ccnc2)c2ccc(OC)cc2)cc1 -16.2%
NC(N)=NCCCCN=C(N)N
COc1cccc(Cn2c(=O)c(-c3cccc(Cl)c3)nc3cncnc32)c1 6.26%
C=CCN1[C@@H](C(C)C)COCCS1(=O)=O 14%
Cc1cc(=O)c2c(O)cc(O)c(C)c2o1 -17%
O=C1Nc2ccc(Cl)cc2[C@@](C#CC2CC2)(C(F)(F)F)O1 -28.4%
O=C(NC[C@@H]1CCCN2CCCC[C@H]12)c1cnn(-c2nccc(-c3ccco3)n2)c1C1CC1 15.9%
c1ccc2sc(N3CCN(Cc4ccc5c(c4)OCO5)CC3)nc2c1
N#CCCn1c(=O)c(-c2cc(F)cc(F)c2)nc2cnc(Oc3ccccc3)nc21 2.31%
Nc1ccc(C(=O)O)c(O)c1
CN(Cc1ccco1)c1ncncc1-c1ccc2c(c1)OCO2 -2.58%
COc1ccc(CNc2cc(-c3ccccc3C)ncn2)c(OC)c1 -12%
CCOc1nc2cccc(C(=O)O)c2n1Cc1ccc(-c2ccccc2-c2nn[nH]n2)cc1 9.91%
CS(=O)(=O)c1ccc(-c2cccc3c2OC(CNC(=O)c2cc(C4CC4)[nH]n2)C3)cc1 (stereo not drawn) 8.08%
O=C1CC[C@@H](O)CCN1CC[C@H](Sc1ccccc1)c1ccccc1 1.68%
COc1ccccc1CN1CCCC2(CCN(C(C)=O)CC2)C1 15.5%
CCCCCCCCCCCCCCCCCCNC(=O)OCC(COP(=O)([O-])OCC[n+]1ccsc1)OC (stereo not drawn) 27.5% [at 75.8 µM]
Cc1ncc(CO)c(CN)c1O 6.02%
O=C(c1ccccc1)c1ccccc1 18%
Cc1ccnc2ccc3ccccc3c12 19.1%
O=C(Nc1cccc(F)c1)N1CC[C@@]2(CCCN(C(=O)c3cnccn3)C2)C1 15%
COc1ncc2nc(-c3cn(C)c4ccccc34)c(=O)n(C)c2n1 21.6%
CCCCN1CCCC[C@H]1C(=O)Nc1c(C)cccc1C 10.2%
CN(C)c1ccc(-c2c(-c3ccc4c(c3)OCO4)noc2-c2ccsc2)cn1 -11.2%
CC(N)(C(=O)O)c1ccc(-c2nn[nH]n2)cc1 (stereo not drawn) 32.8%
O=C(NCC1CCC2(CCN(Cc3ccc4ncccc4c3)CC2)O1)C1CCCO1 (stereo not drawn) -3%
COc1ccc(C(=O)N(Cc2cc3cccc(C)c3nc2N(C)C)CC2CCCO2)cc1 (stereo not drawn) 2.57%
O=c1c(-c2cccs2)nc2cncnc2n1C1CC1 17%
O=C(NCC1CCC2(CCN(Cc3cnn(-c4ccc(F)cc4)c3)CC2)O1)c1ccccc1 (stereo not drawn) -6.2%
O=C(Nc1ccccc1)C12CC1/C(=N\O)c1ccccc1O2 (stereo not drawn) 17.8%
CC(=O)Oc1ccc(C(c2ccc(OC(C)=O)cc2)c2ccccn2)cc1
CN(C)C(=O)COC(=O)Cc1ccc(OC(=O)c2ccc(N=C(N)N)cc2)cc1 7.18%
Cc1ncc2c(c1CNC(=O)/C=C/c1cccs1)CCN(C(=O)c1noc3c1CCCC3)C2 0.3%
O=c1c(CCc2ccccc2)nc2cnc(Oc3ccccc3)nc2n1C1CC1 -12%
CN1CCN(c2ncc3nc(-c4cccs4)c(=O)n(CCC#N)c3n2)CC1 -7.87%
Cc1cc(=O)[nH]c2cc(N)ccc12 16.7%
N=c1nc(N2CCCCC2)cc(N)n1O
Cc1cnc(C(=O)NCc2c(C)ncc3c2CCN(C(=O)/C=C/c2cccs2)C3)cn1 0.438%
CCCCS(=N)(=O)CCC(N)C(=O)O (stereo not drawn)
CC(=O)O[C@H]1CC2(C)[C@@H](C[C@@H](O)[C@H]3[C@@]4(C)CC[C@@H](O)[C@@H](C)[C@@H]4CC[C@@]32C)C1=C(CCC=C(C)C)C(=O)O (stereo partly drawn) -12.9% [at 75.8 µM]
COC(=O)C1CCCCN1Cc1ccc2c(c1)CN(C1CCSCC1)CCO2 (stereo not drawn) 2.04%
COc1cccc(OC)c1OCCNCC1CSc2ccccc2O1 (stereo not drawn) -10.9% [at 75.8 µM]
C[C@@H]1CN(c2c(F)c(F)c3c(=O)c(C(=O)O)cn(C4CC4)c3c2F)C[C@H](C)N1 6.35%
CCC(C)(C)C(=O)O[C@H]1C[C@@H](C)C=C2C=C[C@H](C)[C@H](CC[C@@H]3C[C@@H](O)CC(=O)O3)[C@H]21 -6.87% [at 75.8 µM]
CC(C)[C@H]1COCCS(=O)(=O)N1Cc1ccccc1 -1.45%
CN(C)c1ccc(-c2cc(N(C)Cc3ccco3)ncn2)cc1 -15.6%
COc1ccc(C2Sc3ccccc3N(CCN(C)C)C(=O)C2OC(C)=O)cc1 (stereo not drawn) 11.3%
CCC(c1ccccc1)c1noc(CCN(CC)CC)n1 (stereo not drawn) 54.6%
CCCc1nn(C)c2c(=O)[nH]c(-c3cc(S(=O)(=O)N4CCN(C)CC4)ccc3OCC)nc12
